# Source: publication PMC4336329 (PLoS ONE, 2015)
# The whole screen tested about 310,000 compounds, of which about 2,200 (0.71%) showed an effect of 50% or more. The effect is printed as a negative number. This is one part of the list.
# Target: human ether-à-go-go-related gene (hERG) potassium channel (human, UniProt Q12809)
# Assay: primary screen, population patch clamp on CHO cells stably expressing hERG
# Chain of human ether-à-go-go-related gene (hERG) potassium channel (Q12809 whole entry, looked up): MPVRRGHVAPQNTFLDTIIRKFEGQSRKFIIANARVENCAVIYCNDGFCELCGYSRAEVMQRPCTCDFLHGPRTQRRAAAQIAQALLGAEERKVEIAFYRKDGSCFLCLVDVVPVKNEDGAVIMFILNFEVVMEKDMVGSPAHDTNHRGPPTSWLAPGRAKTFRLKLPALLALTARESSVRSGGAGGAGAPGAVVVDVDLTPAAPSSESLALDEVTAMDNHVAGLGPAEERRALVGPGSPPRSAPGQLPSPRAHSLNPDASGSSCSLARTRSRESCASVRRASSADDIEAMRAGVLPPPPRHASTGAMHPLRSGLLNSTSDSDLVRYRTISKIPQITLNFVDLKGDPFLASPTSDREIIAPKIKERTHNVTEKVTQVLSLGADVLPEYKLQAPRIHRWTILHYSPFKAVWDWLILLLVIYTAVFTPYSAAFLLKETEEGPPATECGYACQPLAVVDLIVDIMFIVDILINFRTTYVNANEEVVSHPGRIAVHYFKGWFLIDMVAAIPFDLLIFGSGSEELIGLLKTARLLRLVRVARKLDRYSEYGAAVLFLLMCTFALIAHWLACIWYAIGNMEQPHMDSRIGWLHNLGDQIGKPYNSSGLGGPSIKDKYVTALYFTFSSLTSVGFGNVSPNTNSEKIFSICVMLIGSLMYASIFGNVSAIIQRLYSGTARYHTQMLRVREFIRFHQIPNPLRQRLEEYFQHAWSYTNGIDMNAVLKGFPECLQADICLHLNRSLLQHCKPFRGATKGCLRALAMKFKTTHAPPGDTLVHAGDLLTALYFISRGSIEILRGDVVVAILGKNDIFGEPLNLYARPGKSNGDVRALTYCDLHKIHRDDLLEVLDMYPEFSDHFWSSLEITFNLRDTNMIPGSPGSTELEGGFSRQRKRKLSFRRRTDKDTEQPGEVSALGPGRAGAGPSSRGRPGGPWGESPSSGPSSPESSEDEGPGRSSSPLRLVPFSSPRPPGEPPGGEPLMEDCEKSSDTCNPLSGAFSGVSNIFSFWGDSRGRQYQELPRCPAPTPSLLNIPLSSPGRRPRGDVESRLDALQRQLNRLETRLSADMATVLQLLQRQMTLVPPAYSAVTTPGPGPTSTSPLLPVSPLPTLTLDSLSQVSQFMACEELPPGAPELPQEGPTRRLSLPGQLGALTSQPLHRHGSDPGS
row,Structure (SMILES),"hERG current change (%, negative = inhibition) at 1uM [%]"
1,Cn1c(CSCc2ccc(F)cc2)nnc1SCC(=O)N1CCN(c2ccccc2)CC1,-21.3
2,O=C(Cn1cnc2cc([N+](=O)[O-])ccc2c1=O)Nc1ccc(Br)cc1,21.6
3,Cc1cc(Nc2ncc(Cl)cc2Cl)n[nH]1,15.4
4,O=C(COC(=O)c1ccco1)Nc1nc2ccccc2s1,7.2
5,Cc1nn(-c2cc(Cl)ccc2Cl)c(C)c1C(=O)O,15.3
6,CC1CCN(CC(=O)Nc2nn(-c3ccccc3)nc2C(N)=O)CC1,11.6
7,CCN(Cc1nc(-c2cccc(Cl)c2)no1)CC1CCCO1 (stereo not shown),7.87
8,CC(=O)Oc1ccc(Cl)cc1/C=C/c1ccc2ccccc2n1,9.48
9,COc1cccc(/C=N/Nc2nc(Nc3ccccc3)nc(-n3nc(C)cc3C)n2)c1O,12.3
10,CC(C)(C)c1nnc2sc(SC/C(O)=C(\C#N)c3nc4ccccc4[nH]3)nn2c1=O,9.17
11,CC(=O)c1cccc(NC(=O)CCc2nnc3ccc(N4CCOCC4)nn23)c1,15.3
12,O=C(c1cccnc1)N1CCN(c2ccc(Cl)cc2)CC1,-4.43
13,Cc1c(C=C2C(=O)N(C)C(=S)N(C)C2=O)c2ccccc2n1CC(=O)NCC1CCCO1 (stereo not shown),7.21
14,Cc1ccc(-c2noc(CSc3ccccc3)n2)cc1,12.3
15,O=c1ccc(-c2ccc(S(=O)(=O)Nc3ccc(F)cc3)o2)n[nH]1,2.03
16,CCOc1cc(/C=N/NC(=O)c2ccncc2)ccc1OS(C)(=O)=O,11
17,Cc1ccc(C2=Nc3ccc(Br)cc3C(c3ccncc3)=NN2)cc1,6.1
18,O=C(Nc1ccc(Cl)cc1C(F)(F)F)C(Sc1cccc[n+]1[O-])c1ccccc1 (stereo not shown),-34.6
19,Cl.c1coc(CN(Cc2ccco2)c2ncnc3c2oc2ccccc23)c1,-6.39
20,CCOC(=O)c1c(NC(=O)CSc2nc3c(c(=O)n(C)c(=O)n3C)n2C(C)C)sc(C)c1C,10.5
21,O=C(Cn1c(=O)oc2ccccc21)Nc1ccc(Br)cc1,12.5
22,COc1cc2c(=O)n(Cc3ccco3)c(=O)n(CC(=O)c3cccc(Br)c3)c2cc1OC,8.33

row,Structure (SMILES),"hERG current change (%, negative = inhibition) at 1uM [%]"
1,CCN(c1ccccc1)S(=O)(=O)c1cc(C(=O)Nc2ccc(F)c(F)c2)ccc1F,8.23
2,CCOC(=O)/C(C#N)=C/c1ccc(-c2ccsc2C(=O)OC)o1,1.57
3,COc1ccc(C(=O)OCc2cc3cccc(C)c3[nH]c2=O)cc1,11.5
4,Cc1ccc(/C=C2\SC(N3CCN(C(c4ccccc4)c4ccccc4)CC3)=NC2=O)o1,15.2
5,O=C(Nc1ccc(Cl)c(Cl)c1)OCCNC(=O)c1cccc(Cl)c1,11.2
6,COc1ccc(-c2nnc(SCC(=O)NC3CC3)o2)cc1,12.9
7,Cc1ccsc1C(=O)OCC(=O)NCc1ccc2c(c1)OCO2,16.9
8,Cc1ccc(S(=O)(=O)Nc2ccc(Cl)cn2)cc1,12.7
9,CCOC(=O)C1(Cc2cccc(Cl)c2)CCCN(C(=O)CCC(=O)N(C)C)C1 (stereo not shown),9.15
10,CCCCCC(C)NC(=O)c1cc(S(=O)(=O)N2CCCCC2)ccc1N1CCOCC1 (stereo not shown),-4.21
11,COc1cccc(NC(=O)C(=O)NCC(c2ccco2)N2CCc3ccccc3C2)c1 (stereo not shown),8.65
12,CCc1ccc(C2(C)SC(NC(C)=O)=NN2C(C)=O)cc1 (stereo not shown),6.14
13,Cc1cccc(OCc2nnc(SCC(=O)Nc3ccc(C)c(Cl)c3)o2)c1,10.5
14,COc1ccc(N(CC(=O)Nc2ccc3c(c2)OCO3)S(C)(=O)=O)c(OC)c1,14.5
15,Cc1onc(-c2c(Cl)cccc2Cl)c1C(=O)N=S(C)(=O)c1ccccc1 (stereo not shown),15.5
16,CCN(C(=O)c1cc2c(=O)n3ccccc3nc2s1)C1CCCCC1,-2.02
17,COc1nccc(NCc2ccccc2)c1C#N,5.83
18,COc1ccccc1NC(=O)C1C2CCCCC21 (stereo not shown),-0.822
19,Cc1cccc(NC(=O)CCNC(=O)c2ccc(Br)cc2)c1,13.8
20,Nc1nc(-c2ccc3c(c2)NC(=O)CO3)cs1,17
21,Cl.O=C(c1cc(-c2cccs2)nc2ccccc12)N1CCN(c2ccccc2)CC1,16.5
22,CCN(CC)C(=O)N1CCN(Cc2ccc3c(c2)OCO3)CC1,4.9

row,Structure (SMILES),"hERG current change (%, negative = inhibition) at 1uM [%]"
1,CN(C)c1ccc(/C=C/C(=O)c2ccc(O)cc2)cc1[N+](=O)[O-],8.92
2,O=C(c1ccc2c3c(cccc13)CC2)C1CCCN(Cc2ccncc2)C1 (stereo not shown),-2.25
3,O=C(C/C=N\OCc1ccc([N+](=O)[O-])cc1)Nc1ccc(Cl)cc1,-0.523
4,CCOC(=O)CC1C(C(=O)OCC)ON2OC(C(=O)OC)C(C(=O)OCC)C12 (stereo not shown),8.28
5,Cc1ccc(S(=O)(=O)N(C)c2ccc(OC(=O)CN3C(=O)NC4(CCCC4)C3=O)cc2)cc1,-1.35
6,COc1ccc(OCC(=O)NNc2nc3ccccc3s2)cc1,11.9
7,O=C(CC(=O)N/N=C/c1c(F)cccc1Cl)NCCc1ccccc1,11.1
8,Cn1c2ccccc2c(=O)c2c(=O)n(-c3ccccc3)c(-c3ccc(C(C)(C)C)cc3)nc21,14
9,Cc1ccc(C2=NOC(C)(c3nnc(-c4cccc(Cl)c4)o3)C2)cc1 (stereo not shown),6.18
10,O=C(CCCC(=O)N1CCCC1)N1CCCC1,11.8
11,Cc1cccc(N(CC(=O)N2CCN(C)CC2)S(=O)(=O)c2ccccc2)c1,3.68
12,CCCCN(CC)CCNC(=O)c1cc2c(=O)[nH]c3ccccc3c2s1,4.02
13,O=[N+]([O-])c1cc(-c2cnc3ccccc3n2)ccc1Oc1ccc(F)cc1,13.2
14,Nc1nc(NCc2ccco2)nc(Nc2ccc(F)cc2)c1[N+](=O)[O-],13.9
15,COCCNS(=O)(=O)c1cc(OC)ccc1OC,12.7
16,COc1ccccc1C(=O)NNC(=O)c1ccc(Cl)cc1,4.71
17,O=C(NN1C(=O)C2C(C1=O)C1C=CC2C12CC2)c1ccccc1 (stereo not shown),-1.99
18,COC(=O)c1c(Oc2nc(OC)cc(OC)n2)cccc1Oc1nc(OC)cc(OC)n1,8.82
19,CC1CN(S(=O)(=O)Cc2ccccc2)CC(C)O1 (stereo not shown),-4.59
20,COc1cccc(C2c3[nH]c4ccccc4c3CCN2C(=O)c2ccccc2F)c1OC (stereo not shown),17.9
21,CCc1cccc(C)c1NC(=O)C1=C(C(=O)O)CCCC1,3.02
22,O=C1N[C@@H](Cc2cnc[nH]2)C(=O)N2CCC[C@@H]12,15.9

row,Structure (SMILES),"hERG current change (%, negative = inhibition) at 1uM [%]"
1,C=CCC(C=C)[N+]1(CC(=O)OC)CCCCC1.[Br-] (stereo not shown),20.4
2,COc1ccc(NC(=O)Nc2nnc(-c3ccccc3SCc3ccccc3)s2)cc1,6.28
3,CC(C)C(=O)N1CCN(c2ccccc2NC(=O)c2cccc3ccccc23)CC1,1.8
4,COc1ccccc1NC(=S)NCCC(c1ccccc1)c1ccccc1,5.27
5,CCN1C(=O)C(O)(CC(=O)c2c(C)coc2C)c2ccccc21 (stereo not shown),15.7
6,Cc1ccc(NC(=O)CSc2nc3sc(C)cc3c(=O)n2C)cc1,2.64
7,Cn1c(CCC(N)=O)nnc1SCC(=O)Nc1ccccc1C(=O)NC1CC1,-2.82
8,CCNc1nc(SC(C)C(=O)OC)nc(N2CCOCC2)n1 (stereo not shown),6.64
9,Cc1ccc(C(=O)O)cc1NS(=O)(=O)c1ccc2c(c1)oc(=O)n2C,5
10,COc1ccc(-n2c(CN3CCOCC3)nc3ccc([N+](=O)[O-])cc3c2=O)c(OC)c1,8.48
11,COc1ccc(S(=O)(=O)N2CCCC2CNC(=O)C(=O)Nc2cccc(F)c2)cc1 (stereo not shown),4.01
12,O=C(Nc1cccc(O)c1)c1cccc(NC(=O)c2cccs2)c1,8.88
13,Cc1ccc2[nH]cc(CCNC(=O)c3ccc4c(c3)OCO4)c2c1,15.4
14,CC(C)N(Cc1nc(-c2ccc3c(c2)OCO3)no1)Cc1nccn1C,6.53
15,Cc1nn(C(C)C(=O)NC2CC2)c(=O)c2nn(-c3ccccc3)c(C)c12 (stereo not shown),17.7
16,CCOC(=O)C1=C(C)N=C2SCCC(=O)N2[C@@H]1/C=C/c1ccccc1,6.17
17,Cc1ccc(NC(=O)CSc2nnc(C3CC3)n2CC2CCCO2)cc1C (stereo not shown),8.35
18,O=C(Nc1ccccc1)OC1CC2CC1C1CCCC21 (stereo not shown),11.4
19,COc1ccccc1N1CCN(C(=O)CSc2nc3ccccc3nc2N2CCC(C)CC2)CC1,15.1
20,O=C(NCC(c1ccco1)N1CCc2ccccc2C1)c1ccccc1Cl (stereo not shown),1.71
21,CCOC(=O)C1CCN(C(=O)C2CCN(c3nnc(-n4cccc4)s3)CC2)CC1,-35.3
22,O=C(COC(=O)/C=C/c1ccc([N+](=O)[O-])cc1)NCc1ccco1,0.176
